Tests used:
IL-4 = target: T1, IL-4 (Homo sapiens, UniProt P05112); test: Flow cytometry of affibody-displaying yeast binding bIL-4
T1 construct: biotin (label as supplied by the vendor); purchased Acro Biosystems
T1 sequence (P05112 25-153): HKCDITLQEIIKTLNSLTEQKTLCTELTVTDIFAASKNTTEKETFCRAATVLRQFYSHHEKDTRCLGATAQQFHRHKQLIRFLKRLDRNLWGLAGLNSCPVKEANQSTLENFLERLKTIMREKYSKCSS
Description: (§1) Several other proteins involved in the bone healing cascade were chosen to investigate specificity of the BMP-2 affibodies. Monoclonal affibody-displaying yeast were incubated with PBSA, αCMYC and secondary solution, or αCMYC with 1000 nM of biotinylated vascular endothelial growth factor (bVEGF), biotinylated interleukin-4 (bIL-4), or biotinylated granulocyte-macrophage colony stimulated factor (bGM-CSF) and secondary solution.
A yeast surface display library containing approximately 800 million randomized affibody-encoding genes underwent magnetic- and fluorescence-activated cell sorts to isolate affibodies that bind specifically to IL-4. […] Target specificity was evaluated by comparing monoclonal affibody binding between all three angiogenic proteins. Target-specific affibodies were transformed into E. coli and expressed with a hexahistidine tag and C-terminal cysteine for purification and chemical conjugation, respectively.

HUVECs = test: VEGF bioactivity HUVEC proliferation assay (CellTiter-Glo); type: cell-based, human
PDGF-BB [1] = target: T2, PDGF-BB (Homo sapiens, UniProt P01127); test: Flow cytometry of affibody-displaying yeast binding bPDGF; design: biotin (label as supplied by the vendor); purchased R&D Systems; conditions: 1 μM bPDGF
Description: (§2) The binding affinity of each unique affibody for its target protein was characterized using flow cytometry. Yeast were stained for flow cytometry using a similar procedure to FACS staining with a few modifications. The number of induced yeast in each tube was decreased to 1×10^6, and biotinylated protein concentrations for each target ranged from 2.5 to 10000 nM, and yeasts were resuspended in 200 μL of PBSA before being transferred to a 96-well plate. The equilibrium dissociation constant (KD) of each affibody-target protein binding was calculated by comparing the ratio of AF647^+/AF488^+ cells to AF647^+ cells at each target protein concentration, plotting this ratio against protein concentration, and performing nonlinear regression to determine the inflection point of the curve. To determine specificity for each affibody to the respective targets, flow cytometry was performed as described above with one change: each affibody was tested against 1 μM of each of bVEGF, bFGF-2, and bPDGF. Cells were analyzed using an Accuri C6 Plus Flow Cytometer (BD Biosciences, Franklin Lakes, NJ).
(§3) Four rounds of MACS were performed, using magnetic beads covalently conjugated with VEGF165, PDGF-BB, or FGF-2, as the positive sort target, while bovine serum albumin (BSA)-conjugated beads and Tris-coated beads were used for negative sorting. Following MACS, two rounds of FACS were performed to enrich the population for affibody-expressing yeast that bound to the target protein. […] Target specificity was evaluated by comparing monoclonal affibody binding between all three angiogenic proteins. Target-specific affibody coding sequences were transformed into E. coli and expressed with a hexahistidine tag and C-terminal cysteine (e.g., aa 59-65 of SEQ ID NO: 71) for purification and chemical conjugation, respectively.
However, because PDGF typically plays a role in the later stages of angiogenesis, PDGF binding affibodies with higher binding affinities were engineered, resulting in slower, sustained protein release. […]

FGF-2 [2] = target: T3, FGF-2 (Homo sapiens, UniProt P09038); test: Flow cytometry of affibody-displaying yeast binding bFGF-2; conditions: 1 μM bFGF-2
T3 construct: biotin (label as supplied by the vendor); purchased Acro Biosystems
Description: as §2, §3

VEGF = target: T4, VEGF (Homo sapiens, UniProt P15692); test: Biolayer interferometry, soluble affibody vs bVEGF; type: binding; conditions: BLI, binding to VEGF, global fit
T4 construct: biotin (label as supplied by the vendor); purchased Acro Biosystems
T4 sequence (P15692 1-191 isoform P15692-4): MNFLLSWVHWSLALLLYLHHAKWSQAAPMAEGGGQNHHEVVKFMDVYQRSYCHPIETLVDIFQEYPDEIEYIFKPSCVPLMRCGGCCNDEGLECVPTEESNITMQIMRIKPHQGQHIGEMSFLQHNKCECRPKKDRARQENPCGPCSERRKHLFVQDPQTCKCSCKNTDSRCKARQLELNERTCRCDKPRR
Description: (§4) Loaded probes were submerged in PBST until the baseline wavelength reading stabilized (approximately 300 seconds). 3.125-1000 nM of soluble VEGF-specific affibodies serially diluted in PBST were associated to the bVEGF-loaded probes for 600 seconds. Probes were then submerged into PBST or 600 seconds to measure dissociation of the affibodies. For measuring binding between PDGF and PDGF-specific affibodies, nitrilotriacetic acid (Ni-NTA) functionalized glass probes (GatorBio) were similarly pre-soaked in PBST, then loaded with 200 nM of PDGF-specific affibodies in PBST for 300 seconds until an approximate wavelength shift of 0.5 nm was achieved. Loaded probes were submerged in PBST until the baseline wavelength reading stabilized (approximately 300 seconds). 1.563-50 nM of soluble PDGF serially diluted in PBST were associated to the affibody-loaded probes for 600 seconds. Probes were then submerged into PBST for 600 seconds to measure dissociation of PDGF. Measurements were also taken of bVEGF loaded onto the streptavidin-functionalized probes without affibodies, affibodies loaded onto Ni-NTA probes without PDGF, and 0.0625-50 nM of PDGF without affibodies loaded onto Ni-NTA probes to subtract background signal from the data. Binding curves were normalized to data from probes loaded with only affibodies and only growth factors using GatorOne software 2.10 (GatorBio).
(§5) Biolayer interferometry (BLI) was also performed using streptavidin-functionalized glass probes to measure binding of affibodies to their off-target proteins.
(§6) Binding curves were fit to a global best-fit, non-linear regression model using GraphPad Prism 10.1.1 in which R^2>0.97 to determine the equilibrium dissociation constant (KD), on-rate constant (koff), and off-rate constant (kon) of each binding interaction.
The weaker affinity observed on yeast surface display was likely due to increased steric hindrance and decreased mobility of the VEGF-affibody binding interface when the affibody was fixed within the yeast surface display construct compared to being freely accessible in solution during BLI.

VEGF165 = target: T5, VEGF165 (Homo sapiens, UniProt P15692); test: Flow cytometry of affibody-displaying yeast binding bVEGF; conditions: for binding to VEGF on yeast surface display (specificity): 1 μM bVEGF
T5 construct: biotin (label as supplied by the vendor); purchased Acro Biosystems
T5 sequence (P15692 1-191 isoform P15692-4): T4 sequence (P15692 1-191 isoform P15692-4)
Description: as §2, §1, §3

PDGF-BB [3] = target: T2, PDGF-BB; test: Biolayer interferometry, affibody vs PDGF; type: binding; design: purchased PeproTech; conditions: 25 nM bPDGF on probe; 1000 nM affibody
Description: The binding interaction between PDGF and each soluble affibody was measured using a Gator® Plus biolayer interferometer (BLI; Gator Bio). Each soluble His-tagged affibody was diluted to 200 nM in PBS with 0.05% Tween20 (PBST; Thermo Fisher). Recombinant human PDGF-BB was buffer-exchanged into PBS and diluted to concentrations between 0-50 nM in PBST. Ni-NTA coated BLI probes (Gator Bio) were pre-soaked in 250 μL PBST for 45 minutes. The probes were then baselined with 200 μL PBST for 300 seconds and loaded with affibody for 180 seconds or until the wavelength shift plateaued. A new baseline was established using 200 μL PBST for 180 seconds, followed by 600 seconds of association with 200 μL of the various concentrations of rhPDGF-BB and dissociation for 600 seconds in 200 μL PBST.
as §4, §5, §6
Rosetta Rational Design Generates PDGF-specific Affibodies with Unique Binding Kinetics: Binding of PDGF to PDGF-specific affibodies was evaluated by loading nickel nitrilotriacetic acid (Ni-NTA)-coated BLI probes with 200 nM of each of the PDGF affibodies, followed by association of 1.563-50 nM of PDGF (FIG. 45G). […] Similar to the VEGF-specific affibody, the lower observed affinity between the original PDGF-specific affibody and PDGF on yeast surface display could be due to increased steric hindrance and decreased mobility of the PDGF-affibody binding interface compared to BLI.

FGF-2 [4] = target: T3, FGF-2; test: Biolayer interferometry, soluble affibody vs bFGF-2; type: binding; conditions: 25 nM bFGF-2 on probe; 1000 nM affibody
Description: To further explore the affibody off-target binding observed on yeast surface display, biolayer interferometry (BLI) was used to measure off-target binding between soluble affibodies and proteins.

BMP-2 = target: T6, BMP-2 (Homo sapiens, UniProt P12643); test: Biolayer interferometry (BLI), soluble affibody vs bBMP-2; type: binding; conditions: dissociation into PBST
T6 construct: purchased Medtronic
T6 sequence (P12643 283-396): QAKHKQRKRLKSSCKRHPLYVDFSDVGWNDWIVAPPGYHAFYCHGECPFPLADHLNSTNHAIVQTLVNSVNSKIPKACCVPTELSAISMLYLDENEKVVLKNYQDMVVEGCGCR
Description: Streptavidin-coated BLI probes (Gator Bio) were pre-soaked in 250 μL PBST for 45 minutes. […] A new baseline was established using 200 μL PBST for 90 seconds, followed by 300 seconds of association with 200 μL of the various concentrations of affibody and dissociation for 300 seconds in 200 μL PBST.
BLI enabled the determination of the dissociation rate constant (koff), association rate constant (kon), and overall equilibrium dissociation constant (KD) of each binding interaction.

T2 sequence (P01127 82-190 limits assumed): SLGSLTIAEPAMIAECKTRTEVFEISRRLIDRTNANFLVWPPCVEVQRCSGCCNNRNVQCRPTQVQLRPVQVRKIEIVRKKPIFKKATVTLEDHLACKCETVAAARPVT
T3 sequence (P09038 134-288): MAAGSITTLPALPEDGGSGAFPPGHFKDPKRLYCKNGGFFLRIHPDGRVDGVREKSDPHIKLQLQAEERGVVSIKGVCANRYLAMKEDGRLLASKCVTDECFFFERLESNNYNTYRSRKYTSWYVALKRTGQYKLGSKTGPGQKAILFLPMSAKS

Sequence | binding to IL-4 on yeast surface display (specificity) (IL-4) | binding to PDGF on yeast surface display (specificity) (PDGF-BB [1]) | binding to FGF-2 on yeast surface display (specificity) (FGF-2 [2]) | binding to VEGF on yeast surface display (specificity) (VEGF165) | binding to bPDGF on BLI (specificity) (PDGF-BB [3]) | binding to bFGF-2 on BLI (specificity) (FGF-2 [4]) | further results
AEAKYNKELDAADADVEIWLLPNLTLDQLLAFIAALFNDPSQSSELLSEAKKLNDSQAPK [SEQ ID NO: 61, IL-4 affibody] | specific binding to IL-4 |  |  |  |  |  | 
AEAKYNKEWYDAVFVIGSLPNLTEDQKDAFSDALVDDPSQSSELLSEAKKLNDSQAPK [SEQ ID NO: 22, VEGF affibody] |  | negligible binding | negligible binding | specific binding |  |  | HUVEC proliferation (HUVECs; 200 ng/ml VEGF pre-incubated with an equal molar amount of affibody): inhibited to comparable levels to no VEGF treatment; HUVEC proliferation (HUVECs; 200 ng/ml VEGF with affibody increased to 500× molar excess): increased up to comparable levels as treatment with 200 ng/ml of VEGF; HUVEC proliferation with affibody alone (HUVECs; 19,100 ng/mL affibody, no VEGF, 96 hours): induced HUVEC proliferation in the absence of VEGF that was comparable to treatment with 200 ng/mL of VEGF; Kd (VEGF): 89.8 nM
AEAKYTKEGFDAYDVIDNLPNLTLDQRNAFVYALENDPSQSSELLSEAKKLNDSQAPK (AEAKYTKEGFDAYDVIDNLPNLTLDQRNAFVYALFNDPSQSSELLSEAKKLNDSQAPK) [SEQ ID NO: 21, VEGF affibody] |  | negligible binding | negligible binding | specific binding | negligible binding | negligible binding | 
AEAKYTKELSDANAEIWSLPNLTVDQLVAFIFALWDDPSQSSELLSEAKKLNDSQAPK [SEQ ID NO: 62, IL-4 affibody] | specific binding to IL-4 |  |  |  |  |  | 
AEAKYYKEGATAYRVIEYLPNLTGAQKAAFIDALYNDPSQSSELLSEAKKLNDSQAPK [SEQ ID NO: 20, VEGF affibody] |  | negligible binding | negligible binding | specific binding | negligible binding | negligible binding | greater affinity for VEGF than the medium-affinity VEGF affibody (SEQ ID NO: 21) (VEGF165): approximately 5 fold
AEAKYYKEVSSAATQIRYLPNLTAFQKAAFYAALLDDPSQSSELLSEAKKLNDSQAPK [SEQ ID NO: 1, BMP-2 affibody] |  |  |  |  |  |  | dissociation of affibody and BMP-2 in BLI (BMP-2): incomplete dissociation

Reference: patent publication US20250382361A1, “AFFIBODIES, HYDROGELS CONTAINING AFFIBODIES, AND USES THEREOF” (University of Oregon, priority 2024, published 2025)
